Source: article PMC5892938
The other results are listed elsewhere or left out. At the low end of the ranking, values are background and their order means little.

The sequences below were run against GST-SBP-SLBP (stem-loop binding protein) (UniProt Q14493) (assay: targeted RNA Bind-n-Seq). Settings: RBNS binding buffer: 25 mM Tris pH 7.5, 150 mM KCl, 3 mM MgCl2, 0.1% Tween, 0.5 mg/mL BSA, 1 mM DTT; 27 nM protein, 750 pM RNA pool; temperature not stated; high values mean tight binding.
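Note: DESeq read counts versus GST-SBP nonspecific binding control pulldown.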

Sequence	binding signal (log2 fold change)
GGUCACGUCUCAAUCAACUCAAGUCCAGGAGUUUUCUCCUGCUAUCUCAACAGCUCGCAGUCAAG	0.0372
GGUCACGUCUCAAUCAACUCAUCGCCAGGAGUUUCCUCCUGUUUUCUCAACAGCUCGCAGUCAAG	-0.152
GGUCACGUCUCAAUCAACUCAUCCUCCAGGGAAACCCCUGGCUAAUUCAACAGCUCGCAGUCAAG	-0.578
GGUCACGUCUCAAUCAACUCCUAAGAGGGGGGGAAAACCCCUUUACCCUCACACUCAACAGCUCGCAGUCAAG	-0.0501
GGUCACGUCUCAAUCAACUCAAUCCCAGGAGUUUACUCCUGCAUAGUCAACAGCUCGCAGUCAAG	0.0613
GGUCACGUCUCAAUCAACUCAUCGUCCAGGGAAACCCCUGGUUUUCUCAACAGCUCGCAGUCAAG	-0.239
GGUCACGUCUCAAUCAACUCAUUUCCAGGAGUUUUCUCCUGCUAUCUCAACAGCUCGCAGUCAAG	0.0583
GGUCACGUCUCAAUCAACUCAGUCUCAGGAGUUUUCUCCUGCUUAUUCAACAGCUCGCAGUCAAG	0.00172
GGUCACGUCUCAAUCAACUCAUCCUCCAGGGAAACCCCUGGUAAACUCAACAGCUCGCAGUCAAG	0.127
GGUCACGUCUCAAUCAACUCUAUCUCCAGGGAAAUCCCUGGUUAACUCAACAGCUCGCAGUCAAG	-0.0179
GGUCACGUCUCAAUCAACUCUUCUUCCAGGGAAACCCCUGGCAUACUCAACAGCUCGCAGUCAAG	0.0197
GGUCACGUCUCAAUCAACUCUAUCCCCAGGGAAAUCCCUGGCAUACUCAACAGCUCGCAGUCAAG	-0.137
GGUCACGUCUCAAUCAACUCACAUGAGGGGGGGAAAACCCCUUUACCCUCUUAAUCAACAGCUCGCAGUCAAG	-0.0349
GGUCACGUCUCAAUCAACUCAUCUCCAGGAGUUUACUCCUGUAAAUUCAACAGCUCGCAGUCAAG	0.242
GGUCACGUCUCAAUCAACUCAAACGAGGGGGGGAAAACCCCUUUACCCUCUAUUUCAACAGCUCGCAGUCAAG	0.113
GGUCACGUCUCAAUCAACUCUUUUUCAGGAGUUUUCUCCUGCAUAUUCAACAGCUCGCAGUCAAG	0.0174
GGUCACGUCUCAAUCAACUCUUUCCCAGGAGUUUUCUCCUGUAAACUCAACAGCUCGCAGUCAAG	0.0835
GGUCACGUCUCAAUCAACUCACACGAGGGGGGGAAAACCCCUUUACCCUCAUUAUCAACAGCUCGCAGUCAAG	0.295
GGUCACGUCUCAAUCAACUCUUUUUCAGGAGUUUACUCCUGCUUUCUCAACAGCUCGCAGUCAAG	0.152
GGUCACGUCUCAAUCAACUCAAUUCCCAGGGAAAUCCCUGGCUUACUCAACAGCUCGCAGUCAAG	0.0187
GGUCACGUCUCAAUCAACUCAAUCGAGGGGGGGAAAACCCCUUUACCCUCAACCUCAACAGCUCGCAGUCAAG	-0.349
GGUCACGUCUCAAUCAACUCACAAGAGGGGGGGAAAACCCCUUUACCCUCAUUUUCAACAGCUCGCAGUCAAG	-0.452
GGUCACGUCUCAAUCAACUCAUCCUCAGGAGUUUACUCCUGUAUUCUCAACAGCUCGCAGUCAAG	-0.093
GGUCACGUCUCAAUCAACUCAAUCUCCAGGGAAAACCCUGGUUUUUUCAACAGCUCGCAGUCAAG	-0.104

Sequence	binding signal (log2 fold change)
GGUCACGUCUCAAUCAACUCUUUCUCCAGGGAAAGCCCUGGCAAUCUCAACAGCUCGCAGUCAAG	-0.111
GGUCACGUCUCAAUCAACUCUUCGCCAGGAGUUUUCUCCUGUUUUCUCAACAGCUCGCAGUCAAG	0.0795
GGUCACGUCUCAAUCAACUCUCACGAGGGGGGGAAAACCCCUUUACCCUCACAAUCAACAGCUCGCAGUCAAG	0.0362
GGUCACGUCUCAAUCAACUCUUCUUCCAGGGAAAGCCCUGGCUUACUCAACAGCUCGCAGUCAAG	-0.211
GGUCACGUCUCAAUCAACUCUUAAGAGGGGGGGAAAACCCCUUUACCCUCGAAAUCAACAGCUCGCAGUCAAG	-0.613
GGUCACGUCUCAAUCAACUCUUUUCCCAGGGAAAUCCCUGGCUAACUCAACAGCUCGCAGUCAAG	-0.246
GGUCACGUCUCAAUCAACUCUAUCUCCAGGGAAACCCCUGGCUAAUUCAACAGCUCGCAGUCAAG	0.139
GGUCACGUCUCAAUCAACUCAUACGAGGGGGGGAAAACCCCUUUACCCUCAAUUUCAACAGCUCGCAGUCAAG	0.0985
GGUCACGUCUCAAUCAACUCAAUCCCAGGAGUUUACUCCUGCUUAUUCAACAGCUCGCAGUCAAG	0.163
GGUCACGUCUCAAUCAACUCAUUCCCAGGAGUUUGCUCCUGUAUACUCAACAGCUCGCAGUCAAG	0.181
GGUCACGUCUCAAUCAACUCAACAGAGGGGGGGAAAACCCCUUUACCCUCAAUAUCAACAGCUCGCAGUCAAG	0.362
GGUCACGUCUCAAUCAACUCUUUCCCAGGAGUUUCCUCCUGCUAAUUCAACAGCUCGCAGUCAAG	0.0273
GGUCACGUCUCAAUCAACUCACAAGAGGGGGGGAAAACCCCUUUACCCUCCUAAUCAACAGCUCGCAGUCAAG	0.145
GGUCACGUCUCAAUCAACUCUUAAGAGGGGGGGAAAACCCCUUUACCCUCAUCAUCAACAGCUCGCAGUCAAG	-0.00482
GGUCACGUCUCAAUCAACUCAAUUUCAGGAGUUUUCUCCUGCAAUCUCAACAGCUCGCAGUCAAG	0.0948
GGUCACGUCUCAAUCAACUCUAUCCCAGGAGUUUGCUCCUGCAUUUUCAACAGCUCGCAGUCAAG	0.0258
GGUCACGUCUCAAUCAACUCAUAAGAGGGGGGGAAAACCCCUUUGCCCUCAUUCUCAACAGCUCGCAGUCAAG	0.0506
GGUCACGUCUCAAUCAACUCAACUCCCAGGGAAACCCCUGGCUUACUCAACAGCUCGCAGUCAAG	-0.278
GGUCACGUCUCAAUCAACUCUACUCCAGGAGUUUACUCCUGCAAACUCAACAGCUCGCAGUCAAG	0.0519
GGUCACGUCUCAAUCAACUCAUUCCCCAGGGAAACCCCUGGCUUUCUCAACAGCUCGCAGUCAAG	-0.124
GGUCACGUCUCAAUCAACUCACUAGAGGGGGGGAAAACCCCUUUACCCUCCUAAUCAACAGCUCGCAGUCAAG	0.0858
GGUCACGUCUCAAUCAACUCUACUCCAGGAGUUUCCUCCUGCAAACUCAACAGCUCGCAGUCAAG	-0.0806
GGUCACGUCUCAAUCAACUCAUUCUCCAGGGAAAGCCCUGGCAUACUCAACAGCUCGCAGUCAAG	-0.213
